Several values for one entry are separate records, joined by “and”; a condition that tells them apart may be missing. Equal values may be shown once. In all, about 16,000 compounds went through this assay and about 40 (0.2%) were called active. About 1% were inconclusive and are not listed. The call rests on the fitted dose curve; in most records, active means well fitted activation curve with a large enough effect; inconclusive means small, poorly fitted or top-dose-only effect, or another doubt; inactive means no such curve, though single readings can be large or run the other way. Some of the results follow.
What follows are compounds tested against Rap guanine nucleotide exchange factor 4 (Homo sapiens) (UniProt Q8WZA2) (assay: Validation qHTS for agonist of cAMP-regulated guanine nucleotide exchange factor 4 (EPAC2)). Conditions: EPAC2 Rap1B BODIPY-GDP exchange, fluorescence; activation: stronger effect = higher value.
UniProt Q8WZA2, sequence (Q8WZA2 whole entry, looked up): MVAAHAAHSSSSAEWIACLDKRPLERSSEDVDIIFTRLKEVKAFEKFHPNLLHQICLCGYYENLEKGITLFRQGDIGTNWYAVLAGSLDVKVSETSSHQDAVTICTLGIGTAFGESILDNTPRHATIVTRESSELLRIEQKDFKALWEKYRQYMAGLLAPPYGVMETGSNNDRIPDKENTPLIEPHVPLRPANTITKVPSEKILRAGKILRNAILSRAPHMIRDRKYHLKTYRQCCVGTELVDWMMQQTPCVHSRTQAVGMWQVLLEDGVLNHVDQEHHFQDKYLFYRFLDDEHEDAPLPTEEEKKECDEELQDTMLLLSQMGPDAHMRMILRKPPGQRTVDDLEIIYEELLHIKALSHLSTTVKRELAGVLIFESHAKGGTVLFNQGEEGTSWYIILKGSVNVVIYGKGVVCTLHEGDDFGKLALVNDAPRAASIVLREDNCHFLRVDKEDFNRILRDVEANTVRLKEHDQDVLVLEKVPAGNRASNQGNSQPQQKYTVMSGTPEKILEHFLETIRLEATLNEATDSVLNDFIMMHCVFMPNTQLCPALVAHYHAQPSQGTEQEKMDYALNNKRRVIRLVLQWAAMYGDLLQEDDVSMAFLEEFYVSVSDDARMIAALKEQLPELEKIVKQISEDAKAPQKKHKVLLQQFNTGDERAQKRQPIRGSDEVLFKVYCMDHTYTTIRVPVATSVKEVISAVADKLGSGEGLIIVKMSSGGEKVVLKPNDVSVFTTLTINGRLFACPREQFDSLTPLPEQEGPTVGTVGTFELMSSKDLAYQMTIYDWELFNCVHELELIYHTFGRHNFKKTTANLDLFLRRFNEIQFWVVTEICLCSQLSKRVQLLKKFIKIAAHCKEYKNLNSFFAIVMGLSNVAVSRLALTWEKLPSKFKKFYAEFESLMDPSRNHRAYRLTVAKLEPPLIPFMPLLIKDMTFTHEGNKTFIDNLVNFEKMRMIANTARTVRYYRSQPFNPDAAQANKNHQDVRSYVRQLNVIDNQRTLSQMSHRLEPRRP
How it was run: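 Signal normalized against 6.5 mM cAMP as agonist control. Mix of EPAC2 (100 nM), RAP1B-BODIPY-GDP (250 nM) and GDP (50 uM) was read kinetically at 480/540 nm, every 5 min over 30 min, after 5 min room-temperature incubation with compound.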
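Further: exchange makes BODIPY-GDP fluorescence drop when released from Rap1B; series mostly up to about 150 µM.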
On the % scale 0 is the no-effect control and ±100 the full control effect.

Structure (SMILES) | activation
CCC(OC(C)=O)C(CC(C)NC)(c1ccccc1)c1ccccc1 (stereo unspecified) | inactive: 5.14%
CNCC(O)c1ccc(O)cc1 (stereo unspecified) | inactive: -12.7% and inactive: -40.4%
CC(=O)C1CC[C@H]2C3CC[C@@H]4CC(O)CC[C@@]4(C)C3CC[C@]12C (stereo partly specified) | inactive: 3.26%
c1ccc(N2CCCC3(CCNCC3)C2)cc1 | inactive: -17%
O=C(Cc1ccc(Cl)c(Cl)c1)N1CCCCC1CN1CCCC1 (stereo unspecified) | inactive: 3.99% and inactive: -12.6%
CCCN(CCC)c1c([N+](=O)[O-])cc(S(N)(=O)=O)cc1[N+](=O)[O-] | inactive: -29.8%
C#CCOC(=O)C1=CCCN(C)C1 | inactive: -3.32% and inactive: 6.33% and inactive: -20.9%
S=C=S | inactive: -25.3%
CNC(C)CC1CCCCC1 (stereo unspecified) | inactive: -9.14%
CCS(=O)(=O)C(C)(C)S(=O)(=O)CC | inactive: -13%
CC[C@H]1C2CC3[C@@H]4N(C)c5ccccc5[C@]45C[C@@H](C2[C@H]5O)N3[C@@H]1O (stereo partly specified) | inactive: -4.23%
c1ccc(CCCN2CCN(CCOC(c3ccccc3)c3ccccc3)CC2)cc1 | inactive: -7.04% and inactive: 0.897% and inactive: -58.8%
C[C@@H](C(=O)OC1C[C@H]2CC[C@@H](C1)N2C)c1ccc(Br)cc1 (stereo partly specified) | inactive: 2.88%
CN1CCCC2(CCN(C(=O)Oc3ccccc3)CC2)C1 | inactive: -0.392%
CN(C)CCc1c[nH]c2cccc(OP(=O)(O)O)c12 | inactive: -2.47%
O=C(O)/C=C\C(=O)O | inactive: -3.21%
c1ccc(N2CC3(CCNCC3)C2)nc1 | inactive: 6.91%
CCS(=O)CCSP(=O)(OC)OC (stereo unspecified) | inactive: -17.9%
CCCn1c(C)c(C(=O)c2ccc3ccccc3c2)c2ccccc21 | inactive: -43.6%

Structure (SMILES) | activation
C[C@]12CCC(=O)C=C1CC[C@@H]1[C@@H]2CC[C@@]2(C)[C@H]1CC[C@]2(C)O | inactive: 3.49% and inactive: -16.6%
CCC(CO)NC(=O)C1C=C2c3cccc4[nH]cc(c34)CC2N(C)C1 (stereo unspecified) | inactive: -7.16%
CCCN1CCc2cccc3c2C1Cc1ccc(O)c(O)c1-3 (stereo unspecified) | inactive: -1.17%
CCCC(=O)OCC[N+](C)(C)C | inactive: 8.61%
CN1Cc2c(ccc3c2OCO3)C2C(O)Cc3cc4c(cc3C21)OCO4 (stereo unspecified) | inactive: 2.91% and inactive: -1.28%
c1ccc(C2CC2)c(OCC2=NCCN2)c1 | inactive: -3.34% [middle of 4 runs]
CN1C2CC3CC1C(O3)C2O (stereo unspecified) | inactive: -19.5%
CC[C@H]1C[C@@H]2C[C@H]3c4[nH]c5ccc(OC)cc5c4CCN(C2)[C@@H]13 | inactive: -6.74%
C[C@]12CCC(=O)C(O)=C1CC[C@@H]1[C@@H]2CC[C@]2(C)C(=O)CC[C@@H]12 | inactive: -31.2%
O=C(CCl)c1ccc(Oc2ccc(C(=O)CCl)cc2)cc1 | inactive: -22%
ClCCN(CCCl)/C(=C\c1ccccc1)c1ccnc2ccccc12 | inactive: -5.17%
C[C@]12CCC3C(CC[C@]4(O)CC(O)CC[C@@]34C=O)[C@]1(O)CCC2C1=CC(=O)OC1 (stereo partly specified) | inactive: -5.33%
OC(O)C(Cl)(Cl)Cl | inactive: -39.1%
CNC(C)(C)Cc1ccccc1 | inactive: -4.59% and inactive: -10.7%
CCOP(=S)(OCC)Oc1cc(C)nc(C(C)C)n1 | inactive: -15.5%
CNC(Cc1c[nH]c2ccccc12)C(=O)O (stereo unspecified) | inactive: -10.9%
CO[C@@H]1C[C@@H](C[C@H]2CC[C@H](C)[C@@H]([C@@H](C)C(=O)O)O2)O[C@]2(O[C@](C)([C@H]3CC[C@@](C)(C4OC([C@H]5O[C@@](O)(CO)[C@H](C)C[C@@H]5C)C[C@@H]4C)O3)C[C@H]2C)[C@@H]1C (stereo partly specified) | inactive: 0.405%
COCC(=O)N(c1c(C)cccc1C)C(C)C(=O)OC (stereo unspecified) | inactive: -11.9%
O=C(Nc1cccc(F)c1)N1CCCC2(CCN(C(=O)Oc3ccccc3)CC2)C1 | inactive: -6.89%

Structure (SMILES) | activation
c1ccc(CCN2CCCC2)cc1 | inactive: -16.7%
O=C(O)CCCOc1ccc(Cl)cc1Cl | inactive: 10.3% and inactive: -0.478%
CC(N)(COP(=O)(O)Oc1ccccc1)C(=O)O (stereo unspecified) | inactive: -6.49%
O=C(NC(=O)c1ccccc1Cl)Nc1ccc(OC(F)(F)F)cc1 | inactive: -9.02%
NCC(CP(=O)(O)O)c1ccc(Cl)cc1 (stereo unspecified) | inactive: -0.0836% and inactive: 5.67%
N[C@@H](Cn1cc(I)c(=O)[nH]c1=O)C(=O)O | inactive: -13.1%
c1cnc(N2CCCC3(CCNCC3)C2)nc1 | inactive: -19%
CCCCCc1cc(O)c2c(c1)OC(C)(C)[C@@H]1CCC(C)=C[C@@H]21 | inactive: -22%
CN(C(=O)Cc1ccccc1)[C@H](CN1CCCC1)c1ccccc1 | inactive: 1.2% and inactive: 1.86%
CCCCCCCCCCCCCCCC[n+]1ccccc1 | inactive: -32.2% and inactive: -9.68%
C=C1C/C(=C/C)C(=O)O[C@@H]2CCN3CC=C(COC(=O)[C@]1(C)O)[C@@H]23 | inactive: -1.69%
CC1(C)CC/C(=C/c2ccc(Cl)cc2)C1(O)Cn1cncn1 (stereo unspecified) | inactive: -10.6%
COc1ccc2c(c1OC)C(=O)O[C@H]2[C@@H]1c2cc3c(cc2CCN1C)OCO3 | inactive: -9.55% and inactive: -25.6%
COC(=O)c1cc2c(cn1)[nH]c1ccccc12 | inactive: 15.7%
CN[C@H]1C[C@@H](N)[C@H](O)[C@@H](O[C@@H]2O[C@H](CO)[C@H](O)[C@@H]3OC4(O[C@H]23)O[C@H](C(N)CO)[C@H](O)[C@H](O)[C@H]4O)[C@@H]1O (stereo partly specified) | inactive: -10.5% and inactive: 5.63%
CC(C)(C)NC[C@@H](O)COc1cccc2[nH]c(C#N)cc12 | inactive: -22.8%
COc1ccc(CCN)cc1O | inactive: 1.85%
C=C(C)C1Cc2c(ccc3c2OC2COc4cc(OC)c(OC)cc4C2C3=O)O1 (stereo unspecified) | inactive: -25.1%

— PubChem BioAssay AID1645887 (National Center for Advancing Translational Sciences (NCATS), 2021)
